Assay results from paper PMC3199943, “Screening the MayBridge Rule of 3 Fragment Library for Compounds That Interact with the Trypanosoma brucei myo-Inositol-3-Phosphate Synthase and/or Show Trypanocidal Activity” (Molecular Biology International, 2011).
Values joined by “and” are separate entries in the source; they are usually repeats but may differ in a detail not shown here. Equal entries are not always repeated. Where two headings read alike, the source gives them in different places.

Legend:
[1] = system: cultured bloodstream T. brucei (strain 427); conditions: for Selectivity index: T. brucei ED50 versus HeLa ED50
[2] = system: cultured bloodstream T. brucei (strain 427); assay: microbe, parasite or virus in culture; conditions: Trypanosoma brucei; for IC50: read-out: T. brucei ED50, ED50 ± SD (n = 4)
[3] = read-out: T. brucei Alamar Blue
[4] = read-out: T. brucei Alamar Blue (% survival)

Structure (SMILES) | viability at 500 µM [2, 3] [%] | other results
Nc1ccccc1N [269a, benzene-1,2-diamine] | – | Selectivity index [1]: 0.9; IC50 [2]: 35.2 ± 3 µM
Nc1ccc(Cl)c(F)c1 [269b] | – | Selectivity index [1]: 9.3; IC50 [2]: 150 ± 13 µM
Nc1ccc(Cl)cc1N [269c] | – | Selectivity index [1]: 10.2; IC50 [2]: 21.9 ± 1.2 µM
Fc1cc2nc[nH]c2cc1Cl [269d] | – | Selectivity index [1]: 1.6; IC50 [2]: 331 ± 24 µM
CC(=O)c1cc[nH]c1 [compound 20, 1-(1H-pyrrol-3-yl)ethan-1-one] | 36.8 ± 9.7 | viability at 500 µM [2, 4]: 36.8 ± 9.7%
Cc1cc(C)n(C)n1 [compound 24, 1,3,5‐trimethyl‐1H‐pyrazole] | 114 ± 12.5 | –
O=C(O)c1ccoc1 [compound 28, 3-furoic acid] | 59.7 ± 5.5 | viability at 500 µM [2, 4]: 59.7 ± 5.5%
Cc1cc(CN)no1 [compound 33, (5‐methyl‐3‐isoxazolyl)methylamine] | 75.7 ± 13.5 | –
Cc1nnc(N)s1 [compound 39, 5‐methyl‐1,3,4‐thiadiazol‐2‐amine] | 103 ± 12 | –
OCC1CCNCC1 [compound 40, 4‐piperidylmethanol] | 72.2 ± 8.1 | –
OCC1CCOCC1 [compound 43, tetrahydro‐2H‐pyran‐4‐ylmethanol] | 113 ± 18.4 | –
N#CCCn1cccc1 [compound 50, 3‐(1H‐pyrrol‐1‐yl)propanenitrile] | 90.7 ± 10.3 | –
Cc1noc(C)c1C#N [compound 53, 3,5‐dimethyl‐4‐isoxazolecarbonitrile] | 85 ± 13.8 | –
O=C(O)c1ccccn1 [compound 58, 2‐pyridinecarboxylic acid] | 63 ± 15.4 | –
Cc1ccc(O)c(C)n1 [compound 64, 2,6‐dimethylpyridin‐3‐ol] | 111 ± 6.3 | –
COc1ncccc1N [compound 65, 2‐methoxypyridin‐3‐amine] | 40 ± 11.5 | –
Cc1occc1C(=O)O [compound 75, 2-methyl-3-furoic acid] | 62.2 ± 10.6 | viability at 500 µM [2, 4]: 62.2 ± 10.6%
NC(=O)c1cccs1 [compound 80, thiophene‐2‐carboxamide] | 99.6 ± 2.4 | –
ON=C1CCCCCN1 [compound 87, azepan‐2‐one oxime] | 56.3 ± 9.9 | –
Cc1cccc2cc[nH]c12 [compound 95, 7‐methyl‐1H‐indole] | 24.1 ± 5.2 | –
c1cnc2c(n1)CCCC2 [compound 111, 5,6,7,8‐tetrahydroquinoxaline] | 110 ± 17.6 | –
Cc1ccc(CO)cc1C [compound 119, (3,4‐dimethylphenyl)methanol] | 103 ± 2.8 | –
CC(=O)c1cccc(F)c1 [compound 125, 1‐(3‐fluorophenyl)ethan‐1‐one] | 105 ± 17.2 | –
Cc1cc(C(N)=S)no1 [compound 140, 5‐methylisoxazole‐3‐carbothioamide] | 99.2 ± 19.8 | –
c1cncc(-n2cccc2)c1 [compound 151, 3‐(1H‐pyrrol‐1‐yl)pyridine] | 56.6 ± 19.2 | –
Cn1ccc2cc(N)ccc21 [compound 158, 1‐methyl‐1H‐indol‐5‐amine] | 42.7 ± 9.7 | –
OCc1c[nH]c2ccccc12 [compound 162, 1H-indol-3-ylmethanol] | 32.5 ± 5.9 | Selectivity index [1]: 3.3; viability at 500 µM [2, 4]: 32.5 ± 5.9%; IC50 [2]: 31.3 ± 1.4 µM
OCc1cccc2[nH]ccc12 [compound 163, 1H-indol-4-ylmethanol] | 34.8 ± 0.8 | viability at 500 µM [2, 4]: 34.8 ± 0.8%

Structure (SMILES) | viability at 500 µM [2, 3] [%] | other results
NCc1ccc2occc2c1 [compound 165, 1‐benzofuran‐5‐ylmethylamine] | 81.5 ± 6.3 | –
OCc1cc2ccccc2o1 [compound 167, 1‐benzofuran‐2‐ylmethanol] | 89.8 ± 4.7 | –
NC1=CC=C2OCOCC2C1 (stereo not shown) [compound 195, 4,5‐dihydro‐1,3‐benzodioxine‐6‐amine] | 41.8 ± 8.8 | –
Cc1ccc(C(=O)O)c(N)c1 [compound 196, 2‐amino‐4‐methylbenzoic acid] | 87.4 ± 19.7 | –
CC(=O)N1CCC(C#N)CC1 [compound 207, 1‐acetylpiperidine‐4‐carbonitrile] | 96.5 ± 13.9 | –
CC(=O)Nc1ccccc1F [compound 212, N1‐(2‐fluorophenyl)acetamide] | 97.3 ± 9.6 | –
COc1ccc(N)c(OC)c1 [compound 213, 2,4‐dimethoxyaniline] | 23.7 ± 5.8 | Selectivity index [1]: 12.8; IC50 [2]: 55.6 ± 1.3 µM
O=C(O)Cc1ccc(F)cc1 [compound 219, 2‐(4‐fluorophenyl)acetic acid] | 101 ± 18 | –
Clc1ccc2nonc2c1 [compound 225, 5‐chloro‐2,1,3‐benzoxadiazole] | 95 ± 12.2 | –
Cc1csc(N)c1C(N)=O [compound 239, 2-amino-4-methylthiophene-3-carboxamide] | 22.9 ± 7 | T. brucei ED50 ([1]; ED50 ± SD (n = 4)): 63.0 ± 2.5 µM; viability at 500 µM [2, 4]: 22.9 ± 7%; IC50 [2]: 63 ± 2.5 µM
Cc1cc(N)c(N)cc1Cl [compound 240, 4-chloro-5-methylbenzene-1,2-diamine] | 28.9 ± 7.8 | Selectivity index [1]: 5.2; IC50 [2]: 86.6 ± 4.8 µM
COC(=O)c1ccsc1N [compound 242, methyl 2‐aminothiophene‐3‐carboxylate] | 74 ± 4.7 | –
OCc1ccc2ccccc2n1 [compound 256, 2-quinolinylmethanol] | 21.7 ± 6 | Selectivity index [1]: ~ 21 and 20.8; viability at 500 µM [2, 4]: 21.7 ± 6%; IC50 [2]: 40.1 ± 1.2 µM
Cc1cc2c(N)cccc2nn1 [compound 261, 3-methylcinnolin-5-amine] | 21.7 ± 8.5 | viability at 500 µM [2, 4]: 21.7 ± 8.5%; IC50 [2]: 148 ± 8 µM
Nc1ccccc1-n1ccnc1 [compound 262, 2‐(1H‐imidazol‐1‐yl)aniline] | 72.4 ± 20 | –
NCc1ccc(F)c(Cl)c1 [compound 264, 3‐chloro‐4‐fluorobenzylamine] | 29 ± 5.5 | –
Nc1cc(F)c(Cl)cc1N [compound 269, 4-chloro-5-fluorobenzene-1,2-diamine] | 25.1 ± 10.1 | Selectivity index [1]: ~ 21 and 21.4; IC50 [2]: < 40 µM
COC(=O)c1ccccc1C#N [compound 274, methyl 2‐cyanobenzoate] | 91.2 ± 14.9 | –
Cn1ccc2ccc(CO)cc21 [compound 278, (1‐methyl‐1H‐indol‐6‐yl)methanol] | 28.8 ± 10.8 | –
Cn1c(CN)nc2ccccc21 [compound 281, (1‐methyl‐1H‐benzimidazol‐2‐yl)methylamine] | 27.3 ± 7.7 | Selectivity index [1]: 14.7; IC50 [2]: 44.7 ± 1.8 µM
Cn1nc(CO)c2ccccc21 [compound 286, (1‐methyl‐1H‐indazol‐3‐yl)methanol] | 65.3 ± 18 | –
CCCc1ccc(C(C)=O)cc1 [compound 288, 1‐(4‐propylphenyl)ethan‐1‐one] | 33.5 ± 0.5 | –
CN(C(N)=S)c1ccccc1 [compound 325, N‐methyl‐N‐phenylthiourea] | 24 ± 5.4 | Selectivity index [1]: 5; IC50 [2]: 82.2 ± 4.6 µM
NCc1cccc(-n2cccc2)c1 [compound 364, 3‐(1H‐pyrrol‐1‐yl)benzylamine] | 23.2 ± 4.2 | Selectivity index [1]: 0.6; IC50 [2]: 63.2 ± 1.7 µM
NCc1ccc(-n2cccc2)cc1 [compound 365, 4‐(1H‐pyrrol‐1‐yl)benzylamine] | 22.3 ± 5.1 | Selectivity index [1]: 1.5; IC50 [2]: 49.4 ± 2.1 µM
O=C(O)c1ccccc1-n1cccc1 [compound 513, 2-(1H-pyrrol-1-yl)benzoic acid] | 104 ± 9.6 | trypanocidal or general cytotoxicity activity ([1]; at 0.5 mM): no trypanocidal or general cytotoxicity activity; viability at 500 µM [2, 4]: 104 ± 9.6%
O=C(O)c1sccc1-n1cccc1 [compound 577, 3-(1H-pyrrol-1-yl)thiophene-2-carboxylic acid] | 32.2 ± 4.1 | viability at 500 µM [2, 4]: 32.2 ± 4.1%
